The densities may have been worked out from excess volumes.
Experiment: xn = mol fraction of the nth substance listed
Conditions: 298.15 K, 101 kPa

COC(C)=O + CCCCCCCCn1cc[n+](C)c1.F[B-](F)(F)F
mass density (x1 = 1): 926.9 kg/m3

CCOC(C)=O + CCCCCCCCn1cc[n+](C)c1.F[B-](F)(F)F
mass density (x1 = 1): 894.5 kg/m3

CCC(C)=O + CCCCCCCCn1cc[n+](C)c1.F[B-](F)(F)F
mass density (x1 = 1): 800 kg/m3

CCCCCCCCn1cc[n+](C)c1.F[B-](F)(F)F + COC(C)=O
mass density (x2 = 0): 1105 kg/m3 | mass density (x2 = 0.1173): 1099.8 kg/m3 | mass density (x2 = 0.2964): 1088.9 kg/m3 | mass density (x2 = 0.4063): 1080.1 kg/m3 | mass density (x2 = 0.4511): 1076.1 kg/m3 | mass density (x2 = 0.4964): 1071.4 kg/m3 | mass density (x2 = 0.6056): 1057.6 kg/m3 | mass density (x2 = 0.6519): 1050.4 kg/m3 | mass density (x2 = 0.7027): 1041.2 kg/m3 | mass density (x2 = 0.8989): 983.9 kg/m3

CCCCCCCCn1cc[n+](C)c1.F[B-](F)(F)F + CCCOC(C)=O
mass density (x2 = 0): 1105 kg/m3 | mass density (x2 = 0.1006): 1095.6 kg/m3 | mass density (x2 = 0.197): 1085.5 kg/m3 | mass density (x2 = 0.2972): 1073.5 kg/m3 | mass density (x2 = 0.4992): 1042.6 kg/m3 | mass density (x2 = 0.6013): 1022.3 kg/m3 | mass density (x2 = 0.6504): 1011 kg/m3 | mass density (x2 = 0.7065): 996.6 kg/m3 | mass density (x2 = 0.7992): 968.4 kg/m3 | mass density (x2 = 0.9043): 928.2 kg/m3 | mass density (x2 = 0.9529): 905.9 kg/m3

CCCCCCCCn1cc[n+](C)c1.F[B-](F)(F)F + CCCCOC(C)=O
mass density (x2 = 0): 1105 kg/m3 | mass density (x2 = 0.1989): 1082 kg/m3 | mass density (x2 = 0.3002): 1067.5 kg/m3 | mass density (x2 = 0.3991): 1051.8 kg/m3 | mass density (x2 = 0.502): 1032.8 kg/m3 | mass density (x2 = 0.5548): 1021.8 kg/m3 | mass density (x2 = 0.6024): 1010.9 kg/m3 | mass density (x2 = 0.654): 998.5 kg/m3 | mass density (x2 = 0.7075): 984.2 kg/m3 | mass density (x2 = 0.8007): 955.7 kg/m3 | mass density (x2 = 0.95): 899.2 kg/m3

CCCCCCCCn1cc[n+](C)c1.F[B-](F)(F)F + CCOC(C)=O
mass density (x2 = 0): 1105 kg/m3 | mass density (x2 = 0.1092): 1096.9 kg/m3 | mass density (x2 = 0.2953): 1081 kg/m3 | mass density (x2 = 0.4999): 1054.7 kg/m3 | mass density (x2 = 0.5507): 1046.5 kg/m3 | mass density (x2 = 0.7012): 1015.5 kg/m3 | mass density (x2 = 0.9005): 948.6 kg/m3

CCCOC(C)=O + CCCCCCCCn1cc[n+](C)c1.F[B-](F)(F)F
mass density (x1 = 1): 881.2 kg/m3

CCCCCCCCn1cc[n+](C)c1.F[B-](F)(F)F + CCC(C)=O
mass density (x2 = 0): 1105 kg/m3 | mass density (x2 = 0.209): 1081.1 kg/m3 | mass density (x2 = 0.2713): 1073.2 kg/m3 | mass density (x2 = 0.3991): 1052.8 kg/m3 | mass density (x2 = 0.5032): 1032.6 kg/m3 | mass density (x2 = 0.551): 1021.5 kg/m3 | mass density (x2 = 0.6006): 1009.1 kg/m3 | mass density (x2 = 0.6442): 996.6 kg/m3 | mass density (x2 = 0.9518): 844.5 kg/m3
